Hit rate of the full screen: of about 150,000 compounds, about 180 (0.12%) were called active. This list was built around the results that the source calls inconclusive (neither active nor inactive); the mix of calls is not that of the screen. The call rests on the fitted dose curve; in most records, active means well fitted cell-killing curve with a large enough effect; inconclusive means small, poorly fitted or top-dose-only effect, or effect the other way; inactive means flat fitted curve, though single readings scatter. Potencies beside an inconclusive call are fits to weak or partial responses and may not hold up.
Test: GF-AFC viability counterscreen for inhibitors of alpha-synuclein gene (SNCA) expression; further: nearly all actives have a fitted effect of over 30% in size
Settings: HEK-293-SNCA-luc viability, GF-AFC fluorescence, 24 h; series mostly up to 57.1 µM
Method in brief: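 Cytotoxicity counterscreen: after 24 h compound treatment of genome-edited SNCA-luciferase HEK-293 cells, live-cell protease substrate GF-AFC read by fluorescence after 30 min; activity scaled between DMSO (0%) and medium-only (-100%), curves Hill-fitted.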
With `COc1ccc2nc(C[C@@H]3C[C@@H](C(C)C)[C@H](CNCc4ccccc4)C=C3C)[nH]c2c1` the Potency was inconclusive: 31.6 µM [cytotoxic, single point]. For `CC(C)CCNc1nc(Nc2ccccc2)c2cnn(C)c2n1`, the Potency was inconclusive: 25.1 µM [cytotoxic, single point]. For `COc1ccc(S(=O)(=O)NC[C@@H]2C=C(C)[C@H](CC(=O)N(C)Cc3cccnc3)C[C@H]2C(C)C)cc1`, the Potency was “inactive”. In the case of `CC1CN(c2ccccc2C#N)C(=O)CN1C(=O)Cc1c[nH]c(=O)[nH]c1=O` (stereo unspecified), the Potency is reported as “inactive”. For `CCCCC(CC)CNC(=O)Cc1ccc(-n2c(=O)[nH]c3ccccc3c2=O)cc1` (stereo unspecified), the Potency was inconclusive: 14.1 µM [cytotoxic, partial curve, poor fit]. In the case of `COc1ccccc1CN(Cc1ccccc1OC)C[C@@H]1C=C(C)[C@H](Cc2nc3c(C)cccc3[nH]2)C[C@H]1C(C)C`, the Potency is reported as inconclusive: 22.4 µM [cytotoxic, partial curve, poor fit]. With `Cc1cccc2nc(-c3ccccn3)c(Nc3ccc(F)cc3)n12` the Potency was inconclusive: 17.8 µM [cytotoxic, partial curve]. For `Cc1ccc2nc(SCc3nc(-c4ccc(Cl)cc4)no3)[nH]c2c1`, the Potency was “inactive”. In the case of `O=C(Nc1ccc(OC(F)(F)F)cc1)c1sccc1NCc1ccnc2ccccc12`, the Potency is reported as inconclusive: 21.5 µM [cytotoxic, partial curve]. For `COc1ccccc1N1CCN(c2ccc(=O)n(CC(=O)NCc3ccc(F)cc3)n2)CC1`, the Potency was inconclusive: 25.1 µM [cytotoxic, partial curve, poor fit]. In the case of `O=C([C@@H]1C[C@H](Oc2ccccc2)CN1C(=O)C1CCCCC1)N1CCOCC1`, the Potency is reported as inconclusive: 2.82 µM [cytotoxic, partial curve, poor fit]. With `Cc1ccc2nc(CO[C@H]3CN(Cc4ccc(C(F)(F)F)cc4)C[C@H]3F)[nH]c2c1` the Potency was inconclusive: 28.2 µM [cytotoxic, partial curve, poor fit]. In the case of `CC(C)C1CN(C(=O)c2n[nH]c3c2CCC3)CCC(=O)N1CC1CC1` (stereo unspecified), the Potency is reported as “inactive”. For `CCc1nc(C)c(C(=O)N2CC[C@@](O)(COC)C(C)(C)C2)s1`, the Potency was inconclusive: 3.98 µM [cytotoxic, single point]. For `COc1ccccc1CN1CCCn2nc(C)c(-c3ccccc3C(N)=O)c21`, the Potency was inconclusive: 7.08 µM [cytotoxic, full curve]. With `Cn1c(-c2ccc(CN3CC[C@H]4CNC[C@H]43)o2)nc2ccccc21` the Potency was inconclusive: 39.8 µM [cytotoxic, partial curve, poor fit]. In the case of `CCc1cccc(NC(=O)CN2C(=O)NC(c3ccc(C)cc3)C3=C2COC3=O)c1` (stereo unspecified), the Potency is reported as “inactive”. For `O=C(NCC1CC1)c1cccc(OC2CN(Cc3ccc(F)cc3F)C2)c1`, the Potency was inconclusive: 39.8 µM [cytotoxic, single point]. For `CN1C(=O)CC(C(=O)O)C12CCN(C(=O)Nc1ccccc1)CC2` (stereo unspecified), the Potency was inconclusive: 4.47 µM [cytotoxic, partial curve]. With `COc1ccc(Br)cc1Cn1nnc(C(=O)Nc2cccc(SC)c2)c1N` the Potency was inconclusive: 39.8 µM [cytotoxic, single point]. With `O=C(NC1CCCCC1)N1CCC(Oc2ccc(-c3noc(C4CC4)n3)cc2)C1` (stereo unspecified) the Potency was “inactive”. With `O=C(c1cc(-c2ccc(F)cc2)c2nncn2n1)N1CCOCC1` the Potency was “inactive”. For `O=C([C@H]1CCCN1C(=O)c1cccc(Cl)c1)N1CCCC(c2nc3ccncc3[nH]2)C1` (stereo partly specified), the Potency was “inactive”. In the case of `COCCn1c(=O)c(-c2cccs2)nc2cnc(OC)nc21`, the Potency is reported as inconclusive: 28.2 µM [rising, partial curve, poor fit]. With `Cc1noc(C)c1-c1cc2cc(CNC3CC3)oc2c(NC2CCN(C)CC2)n1` the Potency was inconclusive: 28.2 µM [cytotoxic, partial curve, poor fit]. In the case of `Cc1c(-c2ccnn2C)cc(C(=O)NCc2ccc(S(C)(=O)=O)cn2)c(=O)n1-c1cccc(C(F)(F)F)c1`, the Potency is reported as inconclusive: 37.7 µM [rising, single point]. In the case of `CCCn1c(C)cnc1C1CCN(S(=O)(=O)c2cnn(CC)c2)C1` (stereo unspecified), the Potency is reported as inconclusive: 3.16 µM [cytotoxic, single point]. With `O=C(CSc1n[nH]c(-c2ccc(F)cc2)n1)N1CCN(c2ccc(F)cc2)CC1` the Potency was inconclusive: 22.4 µM [cytotoxic, partial curve, poor fit]. In the case of `CN(C)C(=O)c1ccc(-c2cnc3[nH]cc(CC(=O)N4CCOCC4)c3c2)cc1`, the Potency is reported as “inactive”. For `Cc1noc2c(NCCN3CCOCC3)cc(-c3cccc(C(F)(F)F)c3)nc12`, the Potency was “inactive”. For `O=C(c1ccc2cc[nH]c2c1)N1CCC(n2cc(-c3nc(-c4ccccc4)no3)nn2)CC1`, the Potency was “inactive”. For `Cc1oc2ccn(Cc3ccccc3F)c(=O)c2c1C(=O)NC1CCCCC1`, the Potency was “inactive”. For `COc1ccc(C2=NC(c3ccccc3)=Nc3ccc(C)cc3N2)cc1`, the Potency was “inactive”. In the case of `Cc1cccc(-c2nccc3c(=O)cc(N4CCN(C)CC4)oc23)c1`, the Potency is reported as inconclusive: 10 µM [cytotoxic, single point]. With `N#CCCn1c(=O)c(-c2ccc(F)cc2)nc2cnc(N3CCNCC3)nc21` the Potency was inconclusive: 25.1 µM [rising, partial curve]. For `CC1=C[C@@H](CNC(=O)CN(C)C)[C@H](C(C)C)C[C@H]1Cc1nnc(-c2ccccc2F)o1`, the Potency was inconclusive: 22.4 µM [cytotoxic, partial curve, poor fit]. With `Cc1cc(C)c(OCC(=O)N(Cc2ccc(N(C)C)cc2)Cc2ccco2)c(C)c1` the Potency was inconclusive: 39.8 µM [cytotoxic, single point]. With `COCc1noc([C@@H]2CC(F)(F)CN2C(=O)C(C)C)n1` the Potency was inconclusive: 3.98 µM [cytotoxic, single point]. In the case of `C=CC(=O)N1CCN(C(=O)CNc2cc(I)c(Cl)cc2O)CC1`, the Potency is reported as inconclusive: 8.44 µM [rising, single point]. In the case of `O=C(Nc1ccc(Cl)cc1)N1Cc2[nH]cnc2C[C@H]1c1nc(-c2ccc3ccccc3c2)no1`, the Potency is reported as “inactive”. With `Cc1ccc(C)c(OCC(=O)c2ccc3c(c2)N(C(C)C(=O)NCC2CCCO2)C(=O)CO3)c1` (stereo unspecified) the Potency was inconclusive: 22.4 µM [cytotoxic, partial curve, poor fit].

Source: PubChem BioAssay AID1671193 (National Center for Advancing Translational Sciences (NCATS), 2021)
Potency means the concentration at half of the fitted maximal effect; tags describe the fitted curve by direction and shape.
